Assay results published in PubChem BioAssay (Tox21).
Inconclusive results, whose numbers are uncertain, are shown with a selection of clear calls. For part of these data: Potencies beside an inconclusive call are fits to weak or partial responses and may not hold up. Active and inactive are the calls of the source. Unless noted, the call rests on the fitted dose curve; in most records, active means well fitted curve in the direction sought with a large enough effect in the repeat runs; inconclusive means weak or mixed curves; inactive means no such curve, though single readings can be large; an effect the other way counts as inactive or inconclusive.

Legend:
[1] = qHTS assay for small molecule agonists of the p53 signaling pathway (AID 651631; calls by dose curve; further: potency means the concentration at half of the fitted maximal effect; nearly all actives have a fitted effect of over 15% in size); conditions: HCT-116 p53RE-bla reporter, beta-lactamase FRET ratio, 16 h; activation: at 73.3 µM (top of the series) unless noted
Procedure, shortened: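 HCT-116 p53RE-bla reporter line, 16 h compound treatment at 37 °C, then fluorescence after 2 h with B/G FRET substrate.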

[2] = qHTS assay for small molecule disruptors of the mitochondrial membrane potential - cell viability (AID 720634; calls by dose curve; further: potency means the concentration at half of the fitted maximal effect; nearly all actives have a fitted effect of over 20% in size)
Procedure, shortened: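 Measuring cytotoxicity alongside mitochondrial potential, the screen quantified ATP by luminescence in HepG2 cells after 1 hr compound incubation and a 30 min room-temperature CellTiter-Glo step.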

[3] = qHTS assay for small molecule disruptors of the mitochondrial membrane potential (AID 720635); conditions: HepG2 mitochondrial membrane potential, Mito-MPS dye ratio; ratio activity, negative = MMP loss: at 83.2 µM (top of the series) unless noted; further: potency means the concentration at half of the fitted maximal effect
Procedure, shortened: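 Mitochondrial membrane potential tracked with Mito-MPS dye, red aggregates (ex 540/em 590 nm) against green monomers (ex 490/em 535 nm). Compound treatment 1 hr at 37C, dye 30 min in HepG2.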

[4] = molecular target: Glucocorticoid receptor (Homo sapiens) (UniProt P04150); assay: qHTS assay to identify small molecule agonists of the glucocorticoid receptor (GR) signaling pathway (AID 720691; active means well fitted activation curve with a large enough effect in the signal ratio in the repeat runs, not every such curve was filed as active; inconclusive means weak or mixed curves, or effect the other way; inactive means no such curve, though single readings can be large or run the other way; the % refers to the signal ratio; further: potency means the concentration at half of the fitted maximal effect); conditions: GR-bla HeLa, beta-lactamase reporter ratio, 18 h; activation: at 62.4 µM (top of the series) unless noted
Procedure, shortened: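 Reporter read-out: fluorescence intensity following 2 h room-temperature LiveBLAzer B/G FRET substrate loading. Prior step: GR-bla HeLa cells held 4 h, then treated 18 h at 37 C.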

[5] = molecular target: Glucocorticoid receptor (Homo sapiens) (UniProt P04150); assay: qHTS assay to identify small molecule antagonists of the glucocorticoid receptor (GR) signaling pathway (AID 720692; active means well fitted inhibition curve with a large enough effect in the signal ratio in the repeat runs, not every such curve was filed as active; inconclusive means weak or mixed curves, or effect the other way; inactive means no such curve, though single readings can be large or run the other way; the % refers to the signal ratio; further: potency means the concentration at half of the fitted maximal effect); conditions: GR-bla HeLa, beta-lactamase FRET ratio, dexamethasone-stimulated, 18 h; activity change, negative = inhibition: at 58.5 µM (top of the series) unless noted
Procedure, shortened: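 Dexamethasone (5 nM final) stimulated a stably integrated GRE-beta-lactamase reporter in HeLa cells during 18 h co-incubation with compounds; signal was quantified as fluorescence intensity of B/G FRET substrate after 2 h.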

[6] = qHTS assay for identifying genotoxic compounds that show differential cytotoxicity against isogenic chicken DT40 cell lines with known DNA damage response pathways - Rev3 mutant cell line (AID 743014); conditions: chicken DT40 Rev3-/- viability, CellTiter-Glo, 40 h; activity, negative = cytotoxicity: at 68.4 µM (top of the series); further: potency means the concentration at half of the fitted maximal effect; nearly all actives have a fitted effect of over 55% in size
[7] = molecular target: Androgen receptor (Homo sapiens) (UniProt P10275); assay: qHTS assay to identify small molecule antagonists of the androgen receptor (AR) signaling pathway (AID 743035; active means well fitted inhibition curve with a large enough effect in the signal ratio in the repeat runs, not every such curve was filed as active; inconclusive means weak or mixed curves, or effect the other way; inactive means no such curve, though single readings can be large or run the other way; the % refers to the signal ratio; further: potency means the concentration at half of the fitted maximal effect; on activity change, negative = inhibition: on the % scale 0 is the no-effect control and ±100 the full control effect); conditions: HEK293 AR-UAS-bla, R1881-stimulated, beta-lactamase FRET, 16 h; activity change, negative = inhibition: at 58.5 µM (top of the series) unless noted
Procedure, shortened: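 Using qHTS, AR-UAS-bla GripTite HEK293 cells received compound, then R1881, and were cultured 16 h at 37C/5% CO2 before a 2 h room-temperature LiveBLAzer B/G FRET substrate step and fluorescence measurement.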

[8] = molecular target: Androgen receptor (Homo sapiens) (UniProt P10275); assay: qHTS assay to identify small molecule agonists of the androgen receptor (AR) signaling pathway (AID 743036; active means well fitted activation curve with a large enough effect in the signal ratio in the repeat runs, with a control signal flat, not every such curve was filed as active; inconclusive means weak or mixed curves, or effect the other way; inactive means no such curve, though single readings can be large or run the other way; the % refers to the signal ratio; further: on the % scale 0 is the no-effect control and ±100 the full control effect); conditions: HEK293 AR-UAS-bla GripTite, beta-lactamase FRET ratio, 16 h; activation: at 62.4 µM (top of the series) unless noted
Procedure, shortened: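 Reporter line: GeneBLAzer AR-UAS-bla-GripTite (HEK293). Steps: plate cells, 4 h rest, add compounds, 16 h at 37C, add LiveBLAzer B/G substrate, 2 h at RT, read fluorescence.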

[9] = qHTS assay to identify small molecule antagonists of the thyroid receptor (TR) signaling pathway - cell viability counter screen (AID 743064); conditions: GH3.TRE-Luc viability, CellTiter-Fluor, 24 h; activity change, negative = cytotoxic: at 70.3 µM (top of the series) unless noted; further: potency means the concentration at half of the fitted maximal effect; nearly all actives have a fitted effect of over 50% in size
Procedure, shortened: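 Plate GH3.TRE-Luc cells; incubate 4 h at 37 °C; add compound, then T3 to 1 nM final; incubate 23.5 h; add CellTiter-Fluor; incubate 30 min at 37 °C, 5% CO2; read fluorescence.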

[10] = system: thyroid hormone receptor (rat, GH3 cells); assay: qHTS assay to identify small molecule agonists of the thyroid receptor (TR) signaling pathway (AID 743066; calls by dose curve; further: potency means the concentration at half of the fitted maximal effect; on activation: on the % scale 0 is the no-effect control and ±100 the full control effect); conditions: GH3.TRE-Luc cells, TR agonist luciferase, 24 h; activation: at 83.9 µM (top of the series) unless noted
[11] = molecular target: Estrogen receptor (Homo sapiens) (UniProt P03372); assay: qHTS assay to identify small molecule antagonists of the estrogen receptor alpha (ER-alpha) signaling pathway (AID 743069; active means well fitted curve in the direction sought with a large enough effect in the signal ratio in the repeat runs, not every such curve was filed as active; inconclusive means weak or mixed curves, or effect the other way; inactive means no such curve, though single readings can be large or run the other way; the % refers to the signal ratio; further: potency means the concentration at half of the fitted maximal effect); conditions: HEK293 ER-alpha-UAS-bla, beta-lactamase ratio, antagonist mode; activity, negative = inhibition: at 69.4 µM (top of the series) unless noted
Procedure, shortened: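 ER-alpha-UAS-bla GripTite HEK293 line; 2% charcoal-stripped FBS overnight; plated, 4 hr 37C/5% CO2; cpd in DMSO + 17beta-estradiol, 18 hr 37C; LiveBLAzer B/G FRET substrate 2 hr RT; fluorescence intensity.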

[12] = molecular target: Estrogen receptor (Homo sapiens) (UniProt P03372); assay: qHTS assay to identify small molecule agonists of the estrogen receptor alpha (ER-alpha) signaling pathway using the BG1 cell line (AID 743079); conditions: BG1Luc4E2 cells, ERE-luciferase agonist, 22 h; activation: at 70.3 µM (top of the series) unless noted; further: potency means the concentration at half of the fitted maximal effect; nearly all actives have a fitted effect of over 20% in size
Aromatase (Homo sapiens) = Aromatase (Homo sapiens) (UniProt P11511); assay: qHTS assay to identify aromatase inhibitors (AID 743083); further: potency means the concentration at half of the fitted maximal effect; nearly all actives have a fitted effect of over 55% in size
[13] = molecular target: Aryl hydrocarbon receptor (Homo sapiens) (UniProt P35869); assay: qHTS assay to identify small molecule that activate the aryl hydrocarbon receptor (AhR) signaling pathway (AID 743085); further: potency means the concentration at half of the fitted maximal effect; nearly all actives have a fitted effect of over 15% in size
Procedure, shortened: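 Steps: seed HepG2-AhR-luc cells; allow 5 h at 37C; pin-transfer test compound or vehicle; incubate 24 h at 37C; add viability dye (30 min, 37C) and read fluorescence; add luciferase substrate (30 min, RT) and read luminescence.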

[14] = molecular target: Peroxisome proliferator-activated receptor gamma (Homo sapiens) (UniProt P37231); assay: qHTS assay to identify small molecule agonists of the peroxisome proliferator-activated receptor gamma (PPARg) signaling pathway (AID 743094; active means well fitted activation curve with a large enough effect in the signal ratio in the repeat runs, not every such curve was filed as active; inconclusive means weak or mixed curves, or effect the other way; inactive means no such curve, though single readings can be large or run the other way; the % refers to the signal ratio; further: potency means the concentration at half of the fitted maximal effect); conditions: HEK293H PPARg-UAS-bla, beta-lactamase FRET ratio, 17 h; activation: at 57 µM (top of the series) unless noted
Procedure, shortened: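 Following 5 h plating at 37C, PPARg-bla HEK293H cells receive compound or DMSO for 17 h; fluorescence intensity is recorded after LiveBLAzer B/G loading for 1 h at room temperature.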

[15] = molecular target: Acetylcholinesterase (Homo sapiens) (UniProt P22303); assay: Acetylcholinesterase (AChE) small molecule antagonists: enzyme-based qHTS assay with human liver microsomes (AID 1347399; calls by dose curve; further: on the % scale 0 is the no-effect control and ±100 the full control effect; nearly all actives have a fitted effect of over 60% in size); conditions: Potency: qHTS inhibition
Procedure, shortened: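 Recombinant human AChE (50 mU/mL in the enzyme mix) and human liver microsomes (0.25 mg/mL final) were preincubated with compound and NADPH (0.25 mg/mL final) for 30 min at 37 C. Acetylthiocholine/DTNB was then added; thiocholine was read colorimetrically after 10 min at room temperature.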

[16] = qHTS assay for small molecule activators of the heat shock response signaling pathway (AID 743210; active means well fitted activation curve with a large enough effect in the signal ratio in the repeat runs, with a control signal flat, not every such curve was filed as active; inconclusive means weak or mixed curves; the % refers to the signal ratio; further: potency means the concentration at half of the fitted maximal effect); conditions: HeLa HSE-bla reporter, beta-lactamase ratio, 5 h; activation: at 62.6 µM (top of the series) unless noted
Procedure, shortened: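 HeLa HSE-bla cells, overnight plating; cpd in DMSO 5 h, 37 C; LiveBLAzer B/G FRET substrate 2.5 h RT; fluorescence intensity read.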

[17] = molecular target: Acetylcholinesterase (Homo sapiens) (UniProt P22303); assay: Acetylcholinesterase (AChE) small molecule antagonists: fluorescence cell-based qHTS assay (AID 1347398; calls by dose curve; further: potency means the concentration at half of the fitted maximal effect; nearly all actives have a fitted effect of over 50% in size); conditions: Potency: AChE activity
Procedure, shortened: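 Read-out is Thiolite Green fluorescence at Ex/Em = 490/520 nm, formed by reaction with thiocholine released when cellular AChE in SH-SY5Y cells hydrolyzes acetylthiocholine. Compounds were preincubated 30 min at 37 C before substrate.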

[18] = qHTS assay for small molecules that induce genotoxicity in human embryonic kidney cells expressing luciferase-tagged ATAD5 - cell viability (AID 651634; calls by dose curve; further: potency means the concentration at half of the fitted maximal effect; nearly all actives have a fitted effect of over 25% in size)
Procedure, shortened: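 Seeding of 2,000 HEK293T ATAD5-luciferase cells per well preceded pin-tool compound transfer. Plates sat 15.5 hr at 37C under 5% CO2, then fluorescence was read after 30 min with CellTiter-Fluor.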

[19] = qHTS assay to identify small molecule antagonists of the estrogen receptor alpha (ER-alpha) signaling pathway using the BG1 cell line - cell viability counter screen (AID 743081); conditions: BG1Luc4E2 viability, CellTiter-Fluor, 22 h; activity change, negative = cytotoxicity: at 70.3 µM (top of the series);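 further: compound given together with 17beta-estradiol as the ER stimulus; potency means the concentration at half of the fitted maximal effect; nearly all actives have a fitted effect of over 45% in size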
[20] = qHTS assay to identify aromatase inhibitors - cell viability counter screen (AID 743084); conditions: MCF-7 aro ERE viability, CellTiter-Fluor, 24 h; activity change, negative = cytotoxicity: at 70.3 µM (top of the series);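 further: cells stimulated with testosterone during compound exposure; potency means the concentration at half of the fitted maximal effect; nearly all actives have a fitted effect of over 55% in size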
Tags describe the fitted curve by direction and shape or compound fluorescence and quenching.

Sequence of UniProt P03372 (P03372 whole entry, looked up): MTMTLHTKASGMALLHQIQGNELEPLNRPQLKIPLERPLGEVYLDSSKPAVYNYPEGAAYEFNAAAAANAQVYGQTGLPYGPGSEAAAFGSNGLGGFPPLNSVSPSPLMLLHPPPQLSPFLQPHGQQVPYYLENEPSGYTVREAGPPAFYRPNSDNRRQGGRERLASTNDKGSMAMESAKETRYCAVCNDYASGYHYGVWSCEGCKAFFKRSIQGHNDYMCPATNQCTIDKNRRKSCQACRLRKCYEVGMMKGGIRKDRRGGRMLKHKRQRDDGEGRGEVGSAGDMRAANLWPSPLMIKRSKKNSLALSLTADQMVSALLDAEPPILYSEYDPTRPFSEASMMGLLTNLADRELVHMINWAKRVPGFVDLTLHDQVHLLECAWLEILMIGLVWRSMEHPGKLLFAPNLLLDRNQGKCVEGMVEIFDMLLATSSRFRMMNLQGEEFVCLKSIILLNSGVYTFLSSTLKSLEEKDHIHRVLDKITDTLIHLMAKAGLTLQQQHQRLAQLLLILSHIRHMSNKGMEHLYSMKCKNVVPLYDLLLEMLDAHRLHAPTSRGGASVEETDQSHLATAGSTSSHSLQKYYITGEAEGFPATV
Sequence of UniProt P10275 (P10275 whole entry, looked up): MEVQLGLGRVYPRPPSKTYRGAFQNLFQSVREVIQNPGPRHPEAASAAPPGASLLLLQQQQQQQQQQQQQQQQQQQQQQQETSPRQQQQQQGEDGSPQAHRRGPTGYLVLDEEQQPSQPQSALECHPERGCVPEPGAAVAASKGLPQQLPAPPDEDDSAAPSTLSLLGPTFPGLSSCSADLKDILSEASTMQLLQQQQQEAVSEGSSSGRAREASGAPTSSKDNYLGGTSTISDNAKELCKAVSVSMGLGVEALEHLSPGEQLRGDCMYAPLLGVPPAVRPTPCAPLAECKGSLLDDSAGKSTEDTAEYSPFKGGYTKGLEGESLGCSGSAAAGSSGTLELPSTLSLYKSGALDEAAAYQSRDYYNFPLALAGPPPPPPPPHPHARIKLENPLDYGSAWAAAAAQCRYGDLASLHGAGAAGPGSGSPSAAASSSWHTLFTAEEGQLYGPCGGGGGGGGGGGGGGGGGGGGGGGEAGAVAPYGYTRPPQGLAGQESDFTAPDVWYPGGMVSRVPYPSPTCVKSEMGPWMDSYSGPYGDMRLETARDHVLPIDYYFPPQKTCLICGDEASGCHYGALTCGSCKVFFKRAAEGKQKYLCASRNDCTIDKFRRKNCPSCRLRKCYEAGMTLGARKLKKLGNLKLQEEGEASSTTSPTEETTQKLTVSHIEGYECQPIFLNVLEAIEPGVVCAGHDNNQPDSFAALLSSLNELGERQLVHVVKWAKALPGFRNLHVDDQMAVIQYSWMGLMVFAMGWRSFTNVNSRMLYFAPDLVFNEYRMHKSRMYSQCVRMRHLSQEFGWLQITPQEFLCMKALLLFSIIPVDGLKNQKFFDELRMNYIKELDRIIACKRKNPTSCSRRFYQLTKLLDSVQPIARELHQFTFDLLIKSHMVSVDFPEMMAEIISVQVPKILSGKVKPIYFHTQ
Sequence of UniProt P22303 (P22303 whole entry, looked up): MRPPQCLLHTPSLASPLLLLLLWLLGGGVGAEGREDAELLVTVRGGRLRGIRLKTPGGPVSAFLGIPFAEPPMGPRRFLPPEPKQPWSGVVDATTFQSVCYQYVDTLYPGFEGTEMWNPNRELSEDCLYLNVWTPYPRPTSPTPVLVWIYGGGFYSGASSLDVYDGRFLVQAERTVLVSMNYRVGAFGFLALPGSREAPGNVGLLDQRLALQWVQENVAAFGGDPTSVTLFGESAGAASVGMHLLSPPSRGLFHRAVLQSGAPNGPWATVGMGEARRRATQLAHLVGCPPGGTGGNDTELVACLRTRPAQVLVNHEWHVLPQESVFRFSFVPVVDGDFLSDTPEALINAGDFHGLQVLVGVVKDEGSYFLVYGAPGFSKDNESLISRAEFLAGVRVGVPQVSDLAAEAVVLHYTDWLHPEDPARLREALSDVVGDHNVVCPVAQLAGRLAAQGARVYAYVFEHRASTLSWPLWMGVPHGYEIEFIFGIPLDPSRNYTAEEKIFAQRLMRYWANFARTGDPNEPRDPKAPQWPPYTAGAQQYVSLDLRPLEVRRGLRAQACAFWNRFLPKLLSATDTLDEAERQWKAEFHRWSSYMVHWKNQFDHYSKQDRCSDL
Sequence of UniProt P04150 (P04150 whole entry, looked up): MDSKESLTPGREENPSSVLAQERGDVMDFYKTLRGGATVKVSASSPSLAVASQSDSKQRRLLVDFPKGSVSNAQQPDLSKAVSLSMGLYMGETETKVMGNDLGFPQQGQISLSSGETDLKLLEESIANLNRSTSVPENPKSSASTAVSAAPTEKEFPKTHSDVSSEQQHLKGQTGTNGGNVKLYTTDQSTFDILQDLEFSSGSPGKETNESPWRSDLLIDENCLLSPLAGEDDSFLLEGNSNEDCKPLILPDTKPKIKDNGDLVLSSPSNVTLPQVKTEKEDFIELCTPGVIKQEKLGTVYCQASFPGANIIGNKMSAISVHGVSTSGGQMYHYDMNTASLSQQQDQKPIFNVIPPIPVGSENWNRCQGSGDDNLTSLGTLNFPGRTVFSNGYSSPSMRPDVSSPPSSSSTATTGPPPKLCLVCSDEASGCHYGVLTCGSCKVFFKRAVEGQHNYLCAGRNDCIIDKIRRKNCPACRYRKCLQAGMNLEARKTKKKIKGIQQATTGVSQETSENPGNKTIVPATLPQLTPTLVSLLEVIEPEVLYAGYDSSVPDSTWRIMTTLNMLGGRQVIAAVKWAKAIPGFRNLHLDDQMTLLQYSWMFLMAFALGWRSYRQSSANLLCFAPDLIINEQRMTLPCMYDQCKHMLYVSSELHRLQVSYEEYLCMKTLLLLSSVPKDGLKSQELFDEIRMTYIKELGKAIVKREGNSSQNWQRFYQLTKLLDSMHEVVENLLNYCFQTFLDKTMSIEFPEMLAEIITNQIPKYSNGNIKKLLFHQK
Sequence of UniProt P11511 (P11511 whole entry, looked up): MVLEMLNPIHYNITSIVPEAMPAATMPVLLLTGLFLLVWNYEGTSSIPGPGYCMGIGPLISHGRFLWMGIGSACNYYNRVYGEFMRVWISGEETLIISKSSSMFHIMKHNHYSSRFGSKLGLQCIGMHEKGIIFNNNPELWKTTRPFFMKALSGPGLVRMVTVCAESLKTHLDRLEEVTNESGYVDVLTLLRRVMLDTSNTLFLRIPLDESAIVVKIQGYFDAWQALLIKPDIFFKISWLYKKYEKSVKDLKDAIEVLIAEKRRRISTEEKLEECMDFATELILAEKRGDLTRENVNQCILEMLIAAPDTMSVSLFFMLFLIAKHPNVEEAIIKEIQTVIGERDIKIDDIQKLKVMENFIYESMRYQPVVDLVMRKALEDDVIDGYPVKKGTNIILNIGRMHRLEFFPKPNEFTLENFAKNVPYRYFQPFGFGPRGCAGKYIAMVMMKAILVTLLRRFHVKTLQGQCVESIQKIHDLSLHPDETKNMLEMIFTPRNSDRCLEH
Sequence of UniProt P35869 (P35869 whole entry, looked up): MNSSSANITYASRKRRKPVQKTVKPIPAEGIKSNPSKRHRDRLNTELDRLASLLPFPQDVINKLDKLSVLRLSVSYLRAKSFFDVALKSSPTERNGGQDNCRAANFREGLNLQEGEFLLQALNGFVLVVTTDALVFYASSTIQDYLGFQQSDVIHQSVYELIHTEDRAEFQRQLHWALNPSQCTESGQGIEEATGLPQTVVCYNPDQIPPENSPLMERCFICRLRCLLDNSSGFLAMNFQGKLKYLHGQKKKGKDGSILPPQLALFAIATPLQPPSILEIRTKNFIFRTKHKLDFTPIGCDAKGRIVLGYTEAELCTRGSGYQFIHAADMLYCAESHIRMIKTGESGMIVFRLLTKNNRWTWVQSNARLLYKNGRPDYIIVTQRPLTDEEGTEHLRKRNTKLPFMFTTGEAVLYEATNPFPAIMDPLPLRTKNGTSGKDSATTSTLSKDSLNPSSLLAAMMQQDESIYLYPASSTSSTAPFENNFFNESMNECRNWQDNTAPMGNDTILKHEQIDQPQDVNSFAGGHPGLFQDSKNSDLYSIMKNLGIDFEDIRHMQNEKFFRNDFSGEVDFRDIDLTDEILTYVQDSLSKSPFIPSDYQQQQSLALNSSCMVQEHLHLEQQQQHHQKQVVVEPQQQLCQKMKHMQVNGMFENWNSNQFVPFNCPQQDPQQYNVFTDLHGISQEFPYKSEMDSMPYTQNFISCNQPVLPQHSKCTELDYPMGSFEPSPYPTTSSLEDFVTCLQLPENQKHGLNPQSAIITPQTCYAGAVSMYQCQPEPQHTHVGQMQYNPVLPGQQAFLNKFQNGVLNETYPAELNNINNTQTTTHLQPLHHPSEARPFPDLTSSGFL
Sequence of UniProt P37231 (P37231 whole entry, looked up): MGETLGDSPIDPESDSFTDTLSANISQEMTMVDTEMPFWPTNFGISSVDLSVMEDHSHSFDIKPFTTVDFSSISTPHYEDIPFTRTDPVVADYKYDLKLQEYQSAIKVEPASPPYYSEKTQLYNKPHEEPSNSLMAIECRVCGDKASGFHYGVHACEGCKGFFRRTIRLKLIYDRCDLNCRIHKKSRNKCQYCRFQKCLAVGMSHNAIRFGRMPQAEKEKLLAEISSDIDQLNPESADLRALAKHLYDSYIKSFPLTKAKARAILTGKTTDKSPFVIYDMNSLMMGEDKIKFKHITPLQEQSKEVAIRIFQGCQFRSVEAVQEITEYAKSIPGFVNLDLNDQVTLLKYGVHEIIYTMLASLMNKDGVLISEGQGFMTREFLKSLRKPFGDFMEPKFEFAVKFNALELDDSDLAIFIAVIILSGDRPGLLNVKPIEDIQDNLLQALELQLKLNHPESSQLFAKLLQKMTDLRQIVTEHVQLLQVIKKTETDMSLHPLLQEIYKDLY

CCCCCc1cc(O)c2c(c1)OC(C)(C)[C@@H]1CCC(C)=C[C@@H]21
inconclusive: Potency [1] 23.7 µM [cytotoxic, partial curve] | Potency [2] 11.9 µM [cytotoxic, partial curve, poor fit] | Potency [4] 21.3 µM [cytotoxic] | Potency [5] 26.8 µM [cytotoxic, single point] | activity change, negative = inhibition [7] -10.2% | activation [10] -7.07% [phenotype inactive] | Potency [11] 19 µM [inhibitor, partial curve, poor fit] | Potency [12] 11.9 µM [inhibitor, partial curve, poor fit] | Potency (Aromatase (Homo sapiens)) 23.7 µM [inhibitor, partial curve] | Potency [14] 30.1 µM [falling, single point]
active: Potency [3] 3.76 µM | Potency [6] 13.3 µM | Potency [9] 13.3 µM | Potency [13] 9.44 µM
inactive: Potency [8]

CCCCCCCCOC(C)=O
inactive: Potency [15]

ClC1=C(Cl)C(Cl)(Cl)C(Cl)=C1Cl
active: Potency [16] 52.9 µM
inconclusive: Potency [17] 35.8 µM [inhibitor, single point]

CCCSc1cc(OC)c(CCN)cc1OC
inconclusive: Potency [18] 18.3 µM [falling, partial curve, poor fit] | Potency [3] 32.5 µM [activator, partial curve] | activation [8] 4.19% [at 79.1 µM] | Potency [10] 36.5 µM [inhibitor] | Potency [12] 64.9 µM [inhibitor, partial curve, poor fit] | Potency [19] 0.516 µM [rising, full curve] | Potency [20] 32.5 µM [cytotoxic, partial curve]
active: Potency [1] 32.5 µM | Potency [7] 6.55 µM
